# Source: the supplement of paper PMC3334620
# The full ranking holds about 33,000 sequences; the median of “E-score (-0.5 to 0.5)” is about -0.012, and the highest 2% start at about 0.27. Some of the results follow.
# Target: T1, Vhr1 (UniProt P40522)
# T1 sequence: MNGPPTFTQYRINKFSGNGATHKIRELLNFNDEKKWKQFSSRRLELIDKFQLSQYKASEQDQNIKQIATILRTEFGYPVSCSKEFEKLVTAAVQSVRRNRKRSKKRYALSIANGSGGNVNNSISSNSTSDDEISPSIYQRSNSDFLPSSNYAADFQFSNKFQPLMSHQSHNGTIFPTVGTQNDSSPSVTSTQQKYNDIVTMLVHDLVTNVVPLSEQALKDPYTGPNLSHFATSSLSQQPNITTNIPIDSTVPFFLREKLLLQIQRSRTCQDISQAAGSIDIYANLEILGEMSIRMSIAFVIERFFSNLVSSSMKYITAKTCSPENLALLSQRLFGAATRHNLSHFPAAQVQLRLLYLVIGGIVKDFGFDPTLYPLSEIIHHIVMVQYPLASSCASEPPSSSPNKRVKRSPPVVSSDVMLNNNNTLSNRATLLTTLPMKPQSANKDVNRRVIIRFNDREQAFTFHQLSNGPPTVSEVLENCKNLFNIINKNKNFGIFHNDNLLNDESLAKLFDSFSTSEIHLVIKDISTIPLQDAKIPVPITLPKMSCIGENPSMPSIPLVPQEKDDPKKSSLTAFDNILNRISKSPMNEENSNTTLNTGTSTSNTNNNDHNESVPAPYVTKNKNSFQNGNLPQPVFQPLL
# Experiment: PBM E-score (8-mer binding enrichment) (E-score (-0.5 to 0.5)); higher = stronger / more preferred TF binding; most listed sequences are background and not binding sites
# Settings: protein concentration: 200 nM; construct: GST-full length
# Method: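 Universal 'all 10-mer' protein binding microarrays (Agilent AMADID 015681) probed with GST-tagged S. cerevisiae TFs (full-length or DBD) made by in vitro transcription/translation (PURExpress), about 100-200 nM. Bound TF was detected with fluorescent anti-GST. Each ungapped 8-mer (which stands for itself and its reverse complement) is scored by the PBM enrichment score (E-score), a modified Wilcoxon-Mann-Whitney statistic from -0.5 to +0.5, computed with the Universal PBM Analysis Suite. Scale: above 0.35 generally sequence-specific binding.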
row,Sequence,PBM E-score
1,CGGGCTCA,0.07
2,CTATTAAG,-0.204
3,CAACGCGC,0.0973
4,AGCAACAA,0.101
5,ACGGTGAT,0.0855
6,ATATTGCG,0.0989
7,ACTCATTA,0.175
8,ACAGAGCA,0.118
9,GTCCTCGA,-0.042
10,AATATCTC,0.0209
11,CCACTAAA,-0.081
12,ACAACGCA,0.0784
13,AGTTGGAG,-0.0212
14,CTGGTCTC,-0.164
15,GAACTGAC,-0.0354
16,GCAACCAC,0.198
17,ACCCATTG,0.0779
18,ACGTTGCC,-0.2
19,ATCCGTCG,-0.0338
20,TAATCCCA,0.00513
21,GATTGGAC,-0.106
22,CGCCTCAG,-0.0435
23,ATTTGATC,-0.0155
24,AATACCCC,-0.179
25,CCTAGAAC,-0.207

row,Sequence,PBM E-score
1,CCTATCTA,-0.245
2,AAAACCAG,0.166
3,ATGGAATA,0.117
4,ACTGCGTG,0.143
5,GCAATCTA,-0.0235
6,GCAGCTCA,-0.254
7,CAGCGATC,0.0209
8,TGATAACA,0.0523
9,GTCACTCA,0.325
10,CAGGCGGA,0.191
11,TAAAGAGA,-0.173
12,ATCACTAC,0.144
13,TGTCTTAA,-0.258
14,AGTTCGGA,0.038
15,ATTTGCAA,-0.119
16,GGAACGCC,-0.0926
17,ACGGCCTG,0.00946
18,CCACCTGA,0.156
19,AACACCGC,0.09
20,AAAATCAA,-0.193
21,CATCGTGG,0.209
22,ACCGTGGG,0.0651
23,TGCAGTAA,-0.0479
24,GTCCGGAA,0.075
25,ACTAGGCA,-0.0562

row,Sequence,PBM E-score
1,ACAGAGAT,0.106
2,CACGCACG,-0.0948
3,ATTGGGTG,0.213
4,ATTTTGCC,-0.15
5,GACACCAC,0.0753
6,AGATAAAT,-0.101
7,ACGGCAGC,0.188
8,CGTAGTGA,-0.0445
9,ACATACTC,0.101
10,AATGTAGC,-0.0841
11,AGGTCGCA,0.0638
12,AGGAGGGA,-0.101
13,GTTTCAAA,-0.0415
14,ACAACACA,0.228
15,CAACCGAA,-0.0275
16,GCGGGTAC,0.125
17,ACGGTAAG,-0.254
18,AGAATGGC,-0.0486
19,AGGCAACT,0.0155
20,TATCCTCA,0.0377
21,AAGGGACC,-0.0468
22,AACGAAAT,-0.161
23,AGTTCGAT,-0.00249
24,AATGGGGG,-0.227
25,AAGAAAGC,-0.174

row,Sequence,PBM E-score
1,AACTCCGT,0.0655
2,ACAGCCAT,0.0895
3,AATGCGTC,-0.223
4,CGGCTACC,0.145
5,CTGGCTCC,0.0343
6,AGAGCCTC,-0.228
7,ACGGGAAG,-0.199
8,GTTCCTTA,-0.258
9,CAGAGTAA,-0.0282
10,CAGAGATA,0.0147
11,AACTGTAT,0.0105
12,CCTCATAG,-0.128
13,CCAGGAAG,-0.212
14,GCTAGTAC,0.011
15,TCATCGCA,0.153
16,AGAGGCAG,-0.107
17,AATAGTGA,-0.0108
18,AGCACGTG,0.0862
19,AGGGAGTG,0.042
20,ACTAGCCC,0.0599
21,AGCGAGTA,0.119
22,CTGAGACC,0.0344
23,GATCTCAA,0.0719
24,ACTGGCAC,-0.113
25,AGTGCCAA,-0.195

row,Sequence,PBM E-score
1,GGATGGCC,-0.241
2,TATAAATA,-0.00903
3,GGGTTTAC,-0.0429
4,ATACCTAA,0.053
5,ATACGCCG,0.194
6,CATTAGAC,-0.0588
7,GCTCATGA,0.16
8,GAGGGGTA,0.0252
9,AGAGCGAA,-0.0252
10,CCCCGTGA,0.0353
11,CGCAGGTC,-0.0634
12,GAGAATAA,0.0169
13,AAGAAATC,-0.352
14,AAAGCACA,-0.0506
15,GGTTACAA,0.125
16,AACGGGCG,-0.0264
17,AATACATA,0.124
18,AACCTGCA,-0.105
19,AAACTAGC,-0.0979
20,GGATAAAC,0.139
21,CTACTCTC,-0.129
22,CCATCGCA,0.116
23,GGCCTATA,-0.231
24,AATTTTAG,-0.319
25,AGTGCGGC,-0.0797

row,Sequence,PBM E-score
1,ATACGCTC,0.0424
2,ACGAGCAC,0.0949
3,ACCTTCAA,-0.222
4,CCATCTCA,0.184
5,CAAGTCGC,0.132
6,AGAAATTG,-0.0639
7,CACCGTAG,0.0515
8,ACTCCTAT,0.0975
9,CGCCCGCG,0.179
10,CGGGTACA,0.0928
11,CGTTGGTC,0.0669
12,CCTTTCGC,-0.0467
13,CTAATACA,0.00027
14,AAATAACA,-0.129
15,GCACACGC,-0.0017
16,CCAGAAGC,-0.131
17,TAATCTAA,-0.203
18,GATACGGC,-0.0645
19,AGTGGGAT,0.184
20,CCTTCCCA,0.0792
21,AAGACCCA,0.0351
22,GTATCATA,0.288
23,ACGTCAGA,-0.0949
24,CGGTGAAG,-0.127
25,AAGCCTTC,-0.259

row,Sequence,PBM E-score
1,CTGGACTC,0.122
2,GCCAAGCA,-0.0244
3,ATAGCCCC,-0.257
4,CCATCAAA,-0.00654
5,CAGATCAA,0.0315
6,CGAACCCC,0.0309
7,ATGTTGTC,0.0937
8,AGGTGCGC,-0.128
9,CACGACAC,0.0491
10,CCACAAGA,-0.0184
11,CCGGCGGC,0.0478
12,ATAGCATG,-0.034
13,GGATAAAA,-0.0106
14,AGACACAC,0.138
15,TAGACCGA,0.0966
16,CCTCATTC,-0.0181
17,GCCTAATA,-0.105
18,ATGCGTCA,-0.0142
19,ATCGTATG,0.175
20,CTATAAAA,-0.128
21,CCAACGAA,-0.0836
22,CTGAACCC,0.141
23,AAGTAACC,-0.0634
24,GCGACAAC,-0.00886
25,GTACTCCA,0.0026

row,Sequence,PBM E-score
1,GAATTCTA,-0.0556
2,GAAGTTCC,-0.237
3,CGAGGAGC,-0.0877
4,GCAACTAC,0.0982
5,CACGGGCC,-0.0476
6,CACGACTA,0.209
7,GCTAGCCA,-0.17
8,GTTACCGA,-0.122
9,CTCTATGC,0.0426
10,TAGAACAA,-0.0914
11,AACAACTA,0.0734
12,TCCAGCGA,-0.132
13,AGTGGACA,0.0784
14,CGGGATAA,-0.013
15,AGTTCAGG,-0.148
16,CACTAGAA,-0.279
17,CGAATTTC,-0.109
18,CACCTCCG,0.109
19,ATCTAGCG,-0.116
20,CCTTTGGC,0.0451
21,CGCGTATA,-0.0336
22,CGGATTAA,0.0419
23,GTCCGAAC,-0.133
24,AGGGGCAC,-0.128
25,CACAAACG,0.0273

row,Sequence,PBM E-score
1,CCGTGGAC,-0.0394
2,CAAATGAC,-0.0875
3,GCGTAGTA,-0.077
4,AATAGCAC,-0.026
5,GCCAGGCC,-0.0963
6,AACTCAAC,0.109
7,GTCATCAA,0.196
8,ATGGGATG,0.0391
9,ACCTAAGG,-0.277
10,ATTTTCGC,0.0111
11,CTGGCACA,-0.0822
12,CACGTTGA,0.104
13,GGTTCGGA,-0.112
14,AGCAAACG,-0.105
15,ATGAGCGA,0.106
16,ATTTAACC,0.034
17,GTTTAGCA,-0.173
18,TCTACAGA,0.00648
19,AAGCGAGA,-0.182
